The whole screen tested about 420,000 compounds, of which about 64,000 (15%) were called active. Inconclusive results, whose numbers are uncertain, are shown with a selection of clear calls. Calls come from the whole dose curve; as a rule, active = well fitted inhibition curve with a large enough effect; inconclusive = small, poorly fitted or top-dose-only effect; inactive = flat fitted curve, though single readings scatter. No potency is given beside an inconclusive call; the fits are too rough.
test: qHTS for Inhibitors of human tyrosyl-DNA phosphodiesterase 1 (TDP1): qHTS in cells in absence of CPT; conditions: DT40 Tdp1-/- hTDP1 cells, no CPT, ATP luminescence, 48 h; activity change, negative = growth inhibition: at 46.2 µM (top of the series) unless noted; note: nearly all actives have a fitted effect of over 55% in size
Procedure, shortened: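 Chicken DT40 Tdp1-/- cells stably complemented with human TDP1 were seeded at 400 cells/well with DMSO in place of 20 nM camptothecin. After compound pinning, cells grew at least 48 hr at 37 °C; viability read by CellTiter-Glo luminescence.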
% is set by controls: 0 for no effect and ±100 for the full control effect; potency is the fitted concentration of half-maximal effect; tags give direction and shape of the fitted curve.

SMILES	Potency	activity change, negative = growth inhibition
Cc1ccccc1C1C=C(c2ccc(Cl)cc2)Nc2nnnn21 (stereo not given)	inconclusive [inhibitor, partial curve]	
COc1ccc(NC(=O)COCc2cc(-c3cccs3)on2)cc1	inconclusive [inhibitor, partial curve]	
O=C(CCN1CCN(c2ccccc2)CC1)NNC(=O)c1cccc2ccccc12	inconclusive [inhibitor, single point]	
CCc1nc2ccc(C(=O)N3CCN(C)CC3)cn2c1N(C)CCCc1ccccc1	inconclusive [inhibitor, single point]	
Cc1ccc(C(=O)CSc2nc3ccccc3c(=O)n2N)o1		inactive: -39.8%
CCOc1ccc(C(C(=O)NC2CCCC2)N(C(=O)c2snc(C(N)=O)c2N)c2cccc(O)c2)cc1 (stereo not given)	active: 16.4 µM	
CN1C(=O)Cc2cc(S(=O)(=O)CCC(=O)N3CCN(c4ccccc4F)CC3)ccc21		inactive: 3.31%
Cc1nn(-c2ccc(N3CCCCC3)nn2)c(C)c1CCC(=O)NCc1ccccc1F		inactive: -9.4%
CN(C)CCCOc1ccc2c(c1)Sc1ccccc1CC2=O	inconclusive [inhibitor, single point]	
O=C1NC(=S)SC1=Cc1ccccc1Br	inconclusive [inhibitor, single point]	
COC(=O)N/N=C/c1cn(CCOc2ccc(OC)cc2)c2ccccc12	inconclusive [inhibitor, single point]	
O=c1cc(CO)oc(C(Nc2ccccn2)c2ccccc2F)c1O (stereo not given)		inactive: -21.4%
CC(=O)Nc1cccc(OCCCNC(=O)c2ccc(C(C)(C)C)cc2)c1	inconclusive [inhibitor, partial curve, poor fit]	
CCC(=Nc1ccccc1O)C1=C(O)CC(c2ccccc2)CC1=O (stereo not given)	inconclusive [inhibitor, single point]	
O=C(c1ccc2c(c1)N(Cc1ccccc1)C(=O)c1ccccc1S2(=O)=O)N1CCN(c2ccccn2)CC1	active: 20.6 µM	
Cc1cccc(C(=O)NC2CCN(S(=O)(=O)c3ccccc3)CC2)c1		inactive: -2.05%
COc1ccc(CC(=O)OC(C)CN2CCCCC2)cc1 (stereo not given)	inconclusive [inhibitor, full curve, poor fit]	
CC12CCC(=O)N1C(C(=O)Nc1cc(C(F)(F)F)ccc1N1CCCCC1)CS2 (stereo not given)	inconclusive [inhibitor, single point]	
CC(C)N1CCC1(C)C(=O)Nc1cccc(C#N)c1 (stereo not given)		inactive: 0.433%
Cc1c(C(=O)N2CCN(S(=O)(=O)c3cccs3)CC2)oc2ccc(F)cc12	active: 16.4 µM	
